Data: the supplement of paper PMC8728848
The other results are listed elsewhere or left out.

Tests used:
Experiment in all cases: glycan array binding signal (z-score within array); higher = stronger binding
Conditions in all cases: glycan notation: IUPAC condensed, linker removed
[1] = biological target: Neu5Ac(a2-3)Gal(b1-4)GlcNAc(b1-2)Man(a1-3)[Neu5Ac(a2-6)Gal(b1-4)GlcNAc(b1-2)Man(a1-6)]Man(b1-4)GlcNAc(b1-4)GlcNAc
Procedure, shortened: (§1)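 From the Consortium for Functional Glycomics database, 3228 arrays were curated, keeping only those whose protein sequence was available. Binding is given as a within-array Z-score averaged across arrays sharing a protein sequence and across linkers. Negative Z-scores can be read as non-binding.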

[2] = biological target: Neu5Ac(a2-3)Gal(b1-4)GlcNAc(b1-2)[Neu5Ac(a2-3)Gal(b1-4)GlcNAc(b1-4)]Man(a1-3)[GlcNAc(b1-4)][Neu5Ac(a2-3)Gal(b1-4)GlcNAc(b1-2)[Neu5Ac(a2-3)Gal(b1-4)GlcNAc(b1-6)]Man(a1-6)]Man(b1-4)GlcNAc(b1-4)GlcNAc
Procedure, shortened: as §1

[3] = biological target: Neu5Ac(a2-3)Gal(b1-4)GlcNAc(b1-2)[Neu5Ac(a2-3)Gal(b1-4)GlcNAc(b1-4)]Man(a1-3)[GlcNAc(b1-4)][Neu5Ac(a2-3)Gal(b1-4)GlcNAc(b1-4)Man(a1-6)]Man(b1-4)GlcNAc(b1-4)GlcNAc
Procedure, shortened: as §1

[4] = biological target: Neu5Ac(a2-3)Gal(b1-4)GlcNAc(b1-2)[Neu5Ac(a2-3)Gal(b1-4)GlcNAc(b1-6)]Man(a1-6)[Neu5Ac(a2-3)Gal(b1-4)GlcNAc(b1-2)Man(a1-3)][GlcNAc(b1-4)]Man(b1-4)GlcNAc(b1-4)GlcNAc
Procedure, shortened: as §1

[5] = biological target: Neu5Ac(a2-3)Gal(b1-4)GlcNAc(b1-3)Gal
Procedure, shortened: as §1

[6] = biological target: Neu5Ac(a2-3)Gal(b1-4)GlcNAc(b1-3)Gal(b1-3)GlcNAc
Procedure, shortened: as §1

[7] = biological target: Neu5Ac(a2-3)Gal(b1-4)GlcNAc(b1-3)Gal(b1-4)GlcNAc
Procedure, shortened: as §1

[8] = biological target: Neu5Ac(a2-3)Gal(b1-4)GlcNAc(b1-3)Gal(b1-4)GlcNAc(b1-2)Man(a1-3)[Neu5Ac(a2-3)Gal(b1-4)GlcNAc(b1-3)Gal(b1-4)GlcNAc(b1-2)Man(a1-6)]Man(b1-4)GlcNAc(b1-4)GlcNAc
Procedure, shortened: as §1

[9] = biological target: Neu5Ac(a2-3)Gal(b1-4)GlcNAc(b1-3)Gal(b1-4)GlcNAc(b1-3)Gal(b1-4)GlcNAc
Procedure, shortened: as §1

[10] = biological target: Neu5Ac(a2-3)Gal(b1-4)GlcNAc(b1-3)Gal(b1-4)GlcNAc(b1-3)Gal(b1-4)GlcNAc(b1-2)Man(a1-3)[Neu5Ac(a2-3)Gal(b1-4)GlcNAc(b1-3)Gal(b1-4)GlcNAc(b1-3)Gal(b1-4)GlcNAc(b1-2)Man(a1-6)]GalNAc
Procedure, shortened: as §1

[11] = biological target: Neu5Ac(a2-3)Gal(b1-4)GlcNAc(b1-3)Gal(b1-4)GlcNAc(b1-3)GalNAc
Procedure, shortened: as §1

[12] = biological target: Neu5Ac(a2-3)Gal(b1-4)GlcNAc(b1-3)Gal(b1-4)GlcNAc(b1-3)[Neu5Ac(a2-3)Gal(b1-4)GlcNAc(b1-3)Gal(b1-4)GlcNAc(b1-6)]GalNAc
Procedure, shortened: as §1

[13] = biological target: Neu5Ac(a2-3)Gal(b1-4)GlcNAc(b1-3)Gal(b1-4)GlcNAc(b1-6)[Gal(b1-3)]GalNAc
Procedure, shortened: as §1

[14] = biological target: Neu5Ac(a2-3)Gal(b1-4)GlcNAc(b1-3)Gal(b1-4)[Fuc(a1-3)]GlcNAc
Procedure, shortened: as §1

[15] = biological target: Neu5Ac(a2-3)Gal(b1-4)GlcNAc(b1-3)GalNAc
Procedure, shortened: as §1

[16] = biological target: Neu5Ac(a2-3)Gal(b1-4)GlcNAc(b1-3)[Neu5Ac(a2-3)Gal(b1-4)GlcNAc(b1-6)]GalNAc
Procedure, shortened: as §1

[17] = biological target: Neu5Ac(a2-3)Gal(b1-4)GlcNAc(b1-6)GalNAc
Procedure, shortened: as §1

[18] = biological target: Neu5Ac(a2-3)Gal(b1-4)GlcNAc(b1-6)[Gal(b1-3)]GalNAc
Procedure, shortened: as §1

[19] = biological target: Neu5Ac(a2-3)Gal(b1-4)GlcNAc(b1-6)[Neu5Ac(a2-3)Gal(b1-3)]GalNAc
Procedure, shortened: as §1

[20] = biological target: Neu5Ac(a2-3)Gal(b1-4)GlcNAc6S
Procedure, shortened: as §1

[21] = biological target: Neu5Ac(a2-3)Gal(b1-4)[Fuc(a1-3)]GlcNAc
Procedure, shortened: as §1

[22] = biological target: Neu5Ac(a2-3)Gal(b1-4)[Fuc(a1-3)]GlcNAc(b1-2)Man
Procedure, shortened: as §1

[23] = biological target: Neu5Ac(a2-3)Gal(b1-4)[Fuc(a1-3)]GlcNAc(b1-3)Gal
Procedure, shortened: as §1

[24] = biological target: Neu5Ac(a2-3)Gal(b1-4)[Fuc(a1-3)]GlcNAc(b1-3)Gal(b1-4)GlcNAc
Procedure, shortened: as §1

[25] = biological target: Neu5Ac(a2-3)Gal(b1-4)[Fuc(a1-3)]GlcNAc(b1-3)Gal(b1-4)[Fuc(a1-3)]GlcNAc(b1-3)Gal(b1-4)[Fuc(a1-3)]GlcNAc
Procedure, shortened: as §1

[26] = biological target: Neu5Ac(a2-3)Gal(b1-4)[Fuc(a1-3)]GlcNAc(b1-3)GalNAc
Procedure, shortened: as §1

[27] = biological target: Neu5Ac(a2-3)Gal(b1-4)[Fuc(a1-3)]GlcNAc(b1-6)[Gal(b1-3)]GalNAc
Procedure, shortened: as §1

[28] = biological target: Neu5Ac(a2-3)Gal(b1-4)[Fuc(a1-3)]GlcNAc(b1-6)[Neu5Ac(a2-3)Gal(b1-3)]GalNAc
Procedure, shortened: as §1

[29] = biological target: Neu5Ac(a2-3)Gal(b1-4)[Fuc(a1-3)]GlcNAc6S
Procedure, shortened: as §1

[30] = biological target: Neu5Ac(a2-3)Gal6S(b1-4)GlcNAc
Procedure, shortened: as §1

[31] = biological target: Neu5Ac(a2-3)Gal6S(b1-4)[Fuc(a1-3)]GlcNAc
Procedure, shortened: as §1

Neu5Ac(a2-3)GalNAc = biological target: Neu5Ac(a2-3)GalNAc
Procedure, shortened: as §1

[32] = biological target: Neu5Ac(a2-3)GalNAc(b1-4)GlcNAc
Procedure, shortened: as §1

[33] = biological target: Neu5Ac(a2-3)[GalNAc(b1-4)]Gal(b1-4)Glc
Procedure, shortened: as §1

[34] = biological target: Neu5Ac(a2-3)[GalNAc(b1-4)]Gal(b1-4)GlcNAc
Procedure, shortened: as §1

[35] = biological target: Neu5Ac(a2-3)[GalNAc(b1-4)]Gal(b1-4)GlcNAc(b1-3)GalNAc
Procedure, shortened: as §1

[36] = biological target: Neu5Ac(a2-3)[Neu5Ac(a2-6)]GalNAc
Procedure, shortened: as §1

Neu5Ac(a2-6)Gal = biological target: Neu5Ac(a2-6)Gal
Procedure, shortened: as §1

[37] = biological target: Neu5Ac(a2-6)Gal(b1-3)GlcNAc(b1-3)[Gal(b1-4)GlcNAc(b1-6)]Gal(b1-4)Glc
Procedure, shortened: as §1

Neu5Ac(a2-6)Gal(b1-4)Glc = biological target: Neu5Ac(a2-6)Gal(b1-4)Glc
Procedure, shortened: as §1

[38] = biological target: Neu5Ac(a2-6)Gal(b1-4)GlcNAc
Procedure, shortened: as §1

[39] = biological target: Neu5Ac(a2-6)Gal(b1-4)GlcNAc(b1-2)Man
Procedure, shortened: as §1

[40] = biological target: Neu5Ac(a2-6)Gal(b1-4)GlcNAc(b1-2)Man(a1-3)Man(b1-4)GlcNAc(b1-4)GlcNAc
Procedure, shortened: as §1

[41] = biological target: Neu5Ac(a2-6)Gal(b1-4)GlcNAc(b1-2)Man(a1-3)[Gal(b1-4)GlcNAc(b1-2)Man(a1-6)]Man(b1-4)GlcNAc(b1-4)GlcNAc
Procedure, shortened: as §1

[42] = biological target: Neu5Ac(a2-6)Gal(b1-4)GlcNAc(b1-2)Man(a1-3)[GlcNAc(b1-2)Man(a1-6)]Man(b1-4)GlcNAc(b1-4)GlcNAc
Procedure, shortened: as §1

B1: HML-Native (Hypnea musciformis), P84871 (protein)
chain: QKFCTLDIAPVCCQIVIGGGMYTAGNACMCEGFVSGVGRCENPKECPCTREAQIPSCCSSRWGLVSVTGKCACDCLGGTVAFPEPCPSPY
- glycan array binding signal (z-score) [1]: -0.345
- glycan array binding signal (z-score) [2]: -0.174
- glycan array binding signal (z-score) [3]: -0.309
- glycan array binding signal (z-score) [4]: -0.281
- glycan array binding signal (z-score) [5]: -0.283
- glycan array binding signal (z-score) [6]: -0.326
- glycan array binding signal (z-score) [7]: -0.218
- glycan array binding signal (z-score) [8]: -0.322
- glycan array binding signal (z-score) [9]: -0.179
- glycan array binding signal (z-score) [10]: -0.073
- glycan array binding signal (z-score) [11]: -0.282
- glycan array binding signal (z-score) [12]: -0.256
- glycan array binding signal (z-score) [13]: -0.277
- glycan array binding signal (z-score) [14]: -0.257
- glycan array binding signal (z-score) [15]: -0.202
- glycan array binding signal (z-score) [16]: -0.187
- glycan array binding signal (z-score) [17]: -0.316
- glycan array binding signal (z-score) [18]: -0.228
- glycan array binding signal (z-score) [19]: -0.37
- glycan array binding signal (z-score) [20]: -0.349
- glycan array binding signal (z-score) [21]: -0.244
- glycan array binding signal (z-score) [22]: -0.391
- glycan array binding signal (z-score) [23]: -0.222
- glycan array binding signal (z-score) [24]: -0.096
- glycan array binding signal (z-score) [25]: -0.017
- glycan array binding signal (z-score) [26]: -0.121
- glycan array binding signal (z-score) [27]: -0.226
- glycan array binding signal (z-score) [28]: -0.013
- glycan array binding signal (z-score) [29]: -0.271
- glycan array binding signal (z-score) [30]: -0.309
- glycan array binding signal (z-score) [31]: -0.342
- glycan array binding signal (z-score) (Neu5Ac(a2-3)GalNAc): -0.258
- glycan array binding signal (z-score) [32]: -0.276
- glycan array binding signal (z-score) [33]: -0.268
- glycan array binding signal (z-score) [34]: -0.293
- glycan array binding signal (z-score) [35]: -0.115
- glycan array binding signal (z-score) [36]: -0.23
- glycan array binding signal (z-score) (Neu5Ac(a2-6)Gal): -0.308
- glycan array binding signal (z-score) [37]: -0.317
- glycan array binding signal (z-score) (Neu5Ac(a2-6)Gal(b1-4)Glc): -0.255
- glycan array binding signal (z-score) [38]: -0.245
- glycan array binding signal (z-score) [39]: -0.251
- glycan array binding signal (z-score) [40]: -0.157
- glycan array binding signal (z-score) [41]: -0.255
- glycan array binding signal (z-score) [42]: -0.124
